Source: patent publication US10358436B2, “Kinase inhibitors and method of treating cancer” (University Health Network, priority 2010, dated 2019)
Structures can show the parent of a compound that is named as a salt. Where two headings read alike, the source gives them in different places.

How the values were obtained:
Test in all cases: cells
[1] = tested on: A549 lung cancer cell line; details: Homo sapiens, A549, 120 h, read-out: Cell Line GI50 Range A-549
[2] = tested on: MCF-7 luminal breast cancer cell line; details: Homo sapiens, MCF7, 120 h
[3] = tested on: HCC1954 basal breast cancer cell line; details: Homo sapiens, HCC1954, 120 h
[4] = tested on: MDA-MB-468 basal breast cancer cell line; details: Homo sapiens, MDA-MB-468, 120 h
[5] = tested on: SW620 colon cancer cell line; details: Homo sapiens, SW-620, 120 h, read-out: Cell Line GI50 Range SW-620
[6] = read-out: Cell Line GI50 Range MCF-7
[7] = read-out: Cell Line GI50 Range HCC-1954
[8] = read-out: Cell Line GI50 Range MDA-MB-468
[9] = read-out: Cell Line GI50 Range MCF-7, MCF-7 luminal breast cancer cell line, SRB assay, 5 days
[10] = read-out: Cell Line GI50 Range HCC-1954, HCC1954 basal breast cancer cell line, SRB assay, 5 days

SMILES	GI50 [1]	GI50 [2, 6]	GI50 [3, 7]	GI50 [4, 8]	GI50 [5]	GI50 ([4]; read-out: Cell Line GI50 Range MDA-MB-468, MDA-MB-468 basal breast cancer cell line, SRB assay, 5 days)	GI50 [2, 9]	GI50 [3, 10]
O=C1Nc2ccccc2[C@]12C[C@H]2c1ccc2cn[nH]c2c1 (racemic) [Example A2, (1R*,2S*)-2-(1H-indazol-6-yl)spiro[cyclopropane-1,3′-indolin]-2′-one]	> 10000 nM	> 10000 nM	> 10000 nM	> 10000 nM				
O=C1Nc2ccccc2[C@]12C[C@H]2c1ccc2c(/C=C/c3cccnc3)n[nH]c2c1 (relative stereo) [Example A28, (1R*,2S*)-2-(3-((E)-2-(pyridin-3-yl)vinyl)-1H-indazol-6-yl)spiro-[cyclopropane-1,3′-indolin]-2′-one]	1000 to 10000 nM						1000 to 10000 nM	1000 to 10000 nM
O=C1Nc2ccccc2[C@]12C[C@H]2c1ccc2c(/C=C/c3ccc(N4CCNCC4)cc3)n[nH]c2c1 (relative stereo) [Example A91, (1R*,2S*)-(E)-2-(3-(4-(piperazin-1-yl)styryl)-1H-indazol-6-yl)spiro[cyclopropane-1,3′-indolin]-2′-one 2,2,2-trifluoroacetate]	< 100 nM	< 100 nM	1000 to 10000 nM		< 100 nM			
COc1ccc2c(c1)[C@]1(C[C@H]1c1ccc3c(-c4ccc(C(=O)N5CCN(C)CC5)cc4)n[nH]c3c1)C(=O)N2 (relative stereo) [Example A148, (1R*,2S*)-5′-methoxy-2-(3-(4-(4-methylpiperazine-1-carbonyl)phenyl)-1H-indazol-6-yl)spiro[cyclopropane-1,3′-indolin]-2′-one 2,2,2-trifluoroacetate]			> 10000 nM	100 to 1000 nM				
Cc1ccc(/C=C/c2n[nH]c3cc([C@@H]4C[C@@]45C(=O)Nc4ccccc45)ccc23)c(C)n1 (relative stereo) [Example A158, (1R*,2S*)-2-(3-((E)-2-(2,6-dimethylpyridin-3-yl)vinyl)-1H-indazol-6-yl)spiro[cyclopropane-1,3′-indolin]-2′-one]	100 to 1000 nM				100 to 1000 nM		1000 to 10000 nM	> 10000 nM
NC(=O)CN1C(=O)[C@@]2(C[C@H]2c2ccc3c(/C=C/c4ccc(CN5CCCCC5)cc4)n[nH]c3c2)c2ccccc21 (relative stereo) [Example A165, 2-((1R*,2S*)-(E)-2′-oxo-2-(3-(4-(piperidin-1-ylmethyl)styryl)-1H-indazol-6-yl)spiro[cyclopropane-1,3′-indoline]-1′-yl)acetamide 2,2,2-trifluoroacetate]	< 100 nM	1000 to 10000 nM	1000 to 10000 nM	< 100 nM				
COc1cc2c(cc1OC)[C@]1(C[C@H]1c1ccc3c(/C=C/c4ccc(CN(C)C)cc4)n[nH]c3c1)C(=O)N2 (relative stereo) [Example A168, (1R*,2S*)-(E)-2-(3-(4-((dimethylamino)methyl)styryl)-1H-indazol-6-yl)-5′,6′-dimethoxyspiro[cyclopropane-1,3′-indolin]-2′-one 2,2,2-trifluoroacetate]				100 to 1000 nM	100 to 1000 nM		100 to 1000 nM	100 to 1000 nM
Cc1ccc2c(c1)[C@]1(C[C@H]1c1ccc3c(/C=C/c4ccc(CN(C)C)cc4)n[nH]c3c1)C(=O)N2 (relative stereo) [Example A169, (1R*,2S*)-(E)-2-(3-(4-((dimethylamino)methyl)styryl)-1H-indazol-6-yl)-5′-methylspiro[cyclopropane-1,3′-indolin]-2′-one 2,2,2-trifluoroacetate]	< 100 nM	< 100 nM	1000 to 10000 nM					
COc1ccc2c(c1)[C@]1(C[C@H]1c1ccc3c(/C=C/c4cc(F)c(CN(C)C)c(F)c4)n[nH]c3c1)C(=O)N2 (relative stereo) [Example A215, (1R*,2S*)-(E)-2-(3-(4-((dimethylamino)methyl)-3,5-difluorostyryl)-1H-indazol-6-yl)-5′-methoxyspiro[cyclopropane-1,3′-indolin]-2′-one 2,2,2-trifluoro acetate]		< 100 nM	< 100 nM					
CN1C(=O)[C@@]2(C[C@H]2c2ccc3c(/C=C/c4ccc(CN5CCCC5)cc4)n[nH]c3c2)c2ccccc21 [Example A115, (1R,2S)-(E)-1′-methyl-2-(3-(4-(pyrrolidin-1-ylmethyl)styryl)-1H-indazol-6-yl)spiro[cyclopropane-1,3′-indolin]-2′-one 2,2,2-trifluoroacetate]		1000 to 10000 nM	100 to 1000 nM	< 100 nM	< 100 nM			
O=C1Nc2ccccc2[C@]12C[C@H]2c1ccc2c(/C=C/c3cc(F)c(CN4CCOCC4)c(F)c3)n[nH]c2c1 [Example A116, (1R,2S)-(E)-2-(3-(3,5-difluoro-4-(morpholinomethyl)styryl)-1H-indazol-6-yl)spiro[cyclopropane-1,3′-indolin]-2′-one 2,2,2-trifluoroacetate]		< 100 nM	100 to 1000 nM	< 100 nM	100 to 1000 nM			
C[C@@H]1CCC[C@H](C)N1Cc1ccc(/C=C/c2n[nH]c3cc([C@@H]4C[C@@]45C(=O)Nc4ccccc45)ccc23)cc1 [Example A201, (1R,2S)-(E)-2-(3-(4-((cis-2,6-dimethylpiperidin-1-yl)methyl)styryl)-1H-indazol-6-yl)spiro[cyclopropane-1,3′-indolin]-2′-one 2,2,2-trifluoroacetate]	< 100 nM	100 to 1000 nM	100 to 1000 nM	< 100 nM				
O=C1Nc2ccccc2[C@]12C[C@H]2c1ccc2c(/C=C/c3ccc(CCN4CCOCC4)cc3)n[nH]c2c1 [Example A205, (1R,2S)-(E)-2-(3-(4-(2-morpholinoethyl)styryl)-1H-indazol-6-yl)spiro[cyclopropane-1,3′-indolin]-2′-one 2,2,2-trifluoroacetate]	< 100 nM				< 100 nM			
CCN(CC)Cc1ccc(/C=C/c2n[nH]c3cc([C@@H]4C[C@@]45C(=O)Nc4ccc(OC)cc45)ccc23)cc1 [Example A206, (1R,2S)-(E)-2-(3-(4-((diethylamino)methyl)styryl)-1H-indazol-6-yl)-5′-methoxy spiro[cyclopropane-1,3′-indolin]-2′-one 2,2,2-trifluoroacetate]	< 100 nM	< 100 nM	1000 to 10000 nM	< 100 nM				

Next, values leading:

GI50 [1]	GI50 [2, 6]	GI50 [3, 7]	GI50 [4, 8]	GI50 [5]	GI50 ([4]; read-out: Cell Line GI50 Range MDA-MB-468, MDA-MB-468 basal breast cancer cell line, SRB assay, 5 days)	GI50 [2, 9]	GI50 [3, 10]	SMILES
1000 to 10000 nM	1000 to 10000 nM			1000 to 10000 nM	1000 to 10000 nM			COc1ccc2c(c1)[C@]1(C[C@@H]1c1ccc3c(-c4ccc(N5CCN(C)CC5)nc4)n[nH]c3c1)C(=O)N2 (relative stereo) [Example A17, (1R*,2R*)-5′-Methoxy-2-(3-(6-(4-methylpiperazin-1-yl)pyridin-3-yl)-1H-indazol-6-yl)spiro[cyclopropane-1,3′-indolin]-2′-one]
	> 10000 nM	> 10000 nM	100 to 1000 nM	< 100 nM				COc1ccc2c(c1)[C@]1(C[C@H]1c1ccc3c(-c4ccnc(N5CCN(C)CC5)c4)n[nH]c3c1)C(=O)N2 (relative stereo) [Example A37, (1R*,2S*)-5′-Methoxy-2-(3-(2-(4-methylpiperazin-1-yl)pyridin-4-yl)-1H-indazol-6-yl)spiro[cyclopropane-1,3′-indolin]-2′-one]
			< 100 nM	< 100 nM		< 100 nM	1000 to 10000 nM	COc1ccc2c(c1)[C@]1(C[C@H]1c1ccc3c(/C=C/c4ccc(C(=O)N5CCN(C)CC5)cc4)n[nH]c3c1)C(=O)N2 (relative stereo) [Example A179, (1R*,2S*)-(E)-5′-methoxy-2-(3-(4-(4-methylpiperazine-1-carbonyl)styryl)-1H-indazol-6-yl)spiro[cyclopropane-1,3′-indolin]-2′-one 2,2,2-trifluoroacetate]
< 100 nM	100 to 1000 nM	> 10000 nM	< 100 nM					COc1ccc2c(c1)[C@]1(C[C@H]1c1ccc3c(/C=C/c4ccc5c(c4)CCN(C)C5)n[nH]c3c1)C(=O)N2 [Example A75, (1R,2S)-5′-methoxy-2-(3-((E)-2-(2-methyl-1,2,3,4-tetrahydroisoquinolin-6-yl)vinyl)-1H-indazol-6-yl)spiro[cyclopropane-1,3′-indolin]-2′-one 2,2,2-trifluoroacetate salt]
< 100 nM	100 to 1000 nM	1000 to 10000 nM		< 100 nM				COc1ccc2c(c1)[C@]1(C[C@H]1c1ccc3c(/C=C/c4ccc(OC5CCN(C)CC5)cc4)n[nH]c3c1)C(=O)N2 [Example A79, (1R,2S)-(E)-5′-methoxy-2-(3-(4-(1-methylpiperidin-4-yloxy)styryl)-1H-indazol-6-yl)spiro[cyclopropane-1,3′-indolin]-2′-one 2,2,2-trifluoroacetate salt]
			< 100 nM	< 100 nM		1000 to 10000 nM	1000 to 10000 nM	COc1ccc2c(c1)[C@]1(C[C@H]1c1ccc3c(-c4ccc(N5CC[C@@H](N(C)C)C5)cc4)n[nH]c3c1)C(=O)N2 [Example A127, (1R,2S)-2-(3-(4-((R)-3-(dimethylamino)pyrrolidin-1-yl)phenyl)-1H-indazol-6-yl)-5′-methoxyspiro[cyclopropane-1,3′-indolin]-2′-one 2,2,2-trifluoroacetate]
< 100 nM	< 100 nM	100 to 1000 nM	< 100 nM					CCN1CCN(c2ccc(/C=C/c3n[nH]c4cc([C@@H]5C[C@@]56C(=O)Nc5ccc(OC)cc56)ccc34)cc2)CC1 [Example A187, (1R,2S)-(E)-2-(3-(4-(4-ethylpiperazin-1-yl)styryl)-1H-indazol-6-yl)-5′-methoxyspiro[cyclopropane-1,3′-indolin]-2′-one 2,2,2-trifluoroacetate]
